Over roughly 33,000 sequences, “E-score (-0.5 to 0.5)” has its median near -0.035; the highest 2% begin near 0.35. The list shows a part of the results.
Target: T1, Pdr3 (UniProt P33200)
T1 sequence: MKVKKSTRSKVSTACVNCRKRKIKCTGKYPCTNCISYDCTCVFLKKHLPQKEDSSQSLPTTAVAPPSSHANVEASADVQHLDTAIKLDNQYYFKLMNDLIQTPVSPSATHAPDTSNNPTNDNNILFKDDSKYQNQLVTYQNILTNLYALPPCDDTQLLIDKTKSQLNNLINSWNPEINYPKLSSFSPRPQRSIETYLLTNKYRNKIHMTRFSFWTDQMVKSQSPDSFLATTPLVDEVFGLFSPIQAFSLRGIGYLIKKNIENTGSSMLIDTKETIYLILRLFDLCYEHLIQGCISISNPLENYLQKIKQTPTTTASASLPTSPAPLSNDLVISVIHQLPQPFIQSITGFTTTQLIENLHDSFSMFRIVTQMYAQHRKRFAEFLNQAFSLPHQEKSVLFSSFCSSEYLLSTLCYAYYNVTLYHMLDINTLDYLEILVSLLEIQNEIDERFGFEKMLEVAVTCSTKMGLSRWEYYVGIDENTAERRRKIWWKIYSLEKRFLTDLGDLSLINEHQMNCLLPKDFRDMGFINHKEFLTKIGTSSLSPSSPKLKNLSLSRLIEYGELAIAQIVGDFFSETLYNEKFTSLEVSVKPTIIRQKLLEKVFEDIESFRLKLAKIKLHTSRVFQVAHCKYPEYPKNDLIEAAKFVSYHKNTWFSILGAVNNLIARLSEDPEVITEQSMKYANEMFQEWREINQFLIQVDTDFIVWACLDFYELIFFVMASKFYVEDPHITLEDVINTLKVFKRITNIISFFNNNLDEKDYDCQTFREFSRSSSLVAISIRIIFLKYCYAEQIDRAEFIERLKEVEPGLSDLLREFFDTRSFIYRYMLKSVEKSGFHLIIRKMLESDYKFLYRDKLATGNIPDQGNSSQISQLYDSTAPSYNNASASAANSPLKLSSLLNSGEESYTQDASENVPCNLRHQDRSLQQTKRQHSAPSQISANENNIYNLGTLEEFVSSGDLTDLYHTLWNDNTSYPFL
Experiment: PBM E-score (8-mer binding enrichment) (E-score (-0.5 to 0.5)); higher = stronger / more preferred TF binding; most listed sequences are background and not binding sites
Conditions: protein concentration: 200 nM; construct: GST-full length
In short: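 Universal all-10-mer Agilent arrays, double-stranded by primer extension on fresh or once-stripped slides, were probed with about 100-200 nM GST-tagged yeast transcription factors made by PURExpress. Fluorescent anti-GST detected bound protein, and masliner normalised the scans. E-scores from the Universal PBM Analysis Suite were given to each ungapped eight-base word pooled with its reverse complement.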

| Sequence | PBM E-score |
| --- | --- |
| TCCGACAA | 0.233 |
| CCTGCCAC | -0.114 |
| CTTTTCGC | 0.138 |
| TCAAAACA | -0.0553 |
| AATTTGTC | -0.134 |
| ATGCTCTA | -0.211 |
| TATAAGAA | 0.029 |
| CGGGTGAG | 0.201 |
| CAACTCCG | 0.277 |
| AGCTAAGC | -0.132 |
| ATCCGCAA | 0.222 |
| AACGTAGA | 0.12 |
| CTCTTGCC | -0.056 |
| AACACTCC | 0.182 |
| AAAGCTCC | 0.109 |
| AACGGGTG | 0.226 |
| CCCCGGCG | 0.162 |
| ACCCGCTG | 0.126 |
| CTCCGACC | 0.174 |
| ATAGGCTC | -0.151 |
| CCAAGAGC | -0.159 |
| CCGAAACG | 0.168 |
| CCGGGAGA | 0.369 |
| CCCCAGTA | -0.0517 |
| GTCTTAAC | -0.273 |

| Sequence | PBM E-score |
| --- | --- |
| CAATTTAC | -0.0856 |
| GATATGCC | 0.103 |
| CGAGAACA | -0.00392 |
| CCGTGGTC | 0.113 |
| GGAAGCCA | 0.0692 |
| CCGCACCA | 0.169 |
| CCGAGCAA | 0.209 |
| CAGATAGA | -0.115 |
| CGTAGTGC | -0.138 |
| GACGACTA | -0.203 |
| ACACTATC | -0.0702 |
| TCACACCA | -0.13 |
| CCTCTCCA | -0.341 |
| CAGAATGC | 0.0462 |
| AGCCGGTC | -0.0317 |
| GATCCACA | 0.0247 |
| AAATTCCG | 0.418 |
| TGCCGGAA | 0.454 |
| GCTGTTTA | 0.0507 |
| TAAACTAA | 0.0834 |
| CGAAGAAA | 0.182 |
| AGTGATCC | -0.0637 |
| CGTCTTCA | -0.00054 |
| ACGGGTGA | 0.172 |
| GCCCACGC | -0.139 |

| Sequence | PBM E-score |
| --- | --- |
| CATAATTC | 0.0534 |
| ACGAGTCA | -0.323 |
| AAATGTAC | -0.0787 |
| CGTTCCAG | -0.139 |
| TACAGAGA | -0.169 |
| ATCTCGGC | 0.325 |
| GCCCATTA | -0.114 |
| CAAAAAAC | -0.0172 |
| GACAAACC | -0.0403 |
| ACAATAAG | -0.0602 |
| GCAACTGC | -0.0425 |
| CCAGAGAA | -0.141 |
| ACTTGGGG | 0.0103 |
| AATGCCCA | -0.0176 |
| CGCGGCCG | 0.309 |
| GTGCTTCA | -0.0273 |
| AATGTACG | -0.0699 |
| AAGACAAT | -0.136 |
| CCTTCTAC | -0.169 |
| AGTATAGA | 0.104 |
| ACAGTTCC | 0.387 |
| GGGAAGCA | -0.0013 |
| CGCCAGCC | 0.195 |
| ACACTGGC | -0.0897 |
| CGGCGGAC | 0.289 |

| Sequence | PBM E-score |
| --- | --- |
| ACGCCCCA | 0.128 |
| CTTCTTGC | 0.0838 |
| AGCCCCGA | -0.00177 |
| ATCATAAG | -0.0374 |
| TAGGCCAA | -0.0116 |
| GAGCAGGC | -0.144 |
| AAAGTATT | -0.102 |
| CGGTGTAA | -0.045 |
| CACGCGCC | 0.114 |
| GGTATAGA | -0.0535 |
| GTGGGTAA | -0.077 |
| GACAGGCA | -0.0484 |
| ACTGAAGT | -0.0702 |
| ATTCGATC | 0.0561 |
| GATGCTTA | -0.13 |
| AGTCAACC | -0.133 |
| GGCTGCAC | 0.0936 |
| GGCATTAA | -0.059 |
| AAGTATCT | -0.111 |
| GCGCAGAA | 0.0635 |
| CGTAGGAG | -0.165 |
| ACTGGTCC | 0.109 |
| CACGTCAG | -0.0801 |
| ATAACTAA | -0.0713 |
| ATGTTTAC | -0.0373 |

| Sequence | PBM E-score |
| --- | --- |
| AAACCTTG | -0.163 |
| TCCATCAA | 0.0544 |
| GGAGGTGA | 0.124 |
| GAACAGAC | 0.175 |
| GTTGGGAA | -0.0395 |
| GGGATATA | 0.239 |
| AGCCGGGC | 0.137 |
| CGCTCAAC | -0.0135 |
| ACATTCGA | -0.102 |
| ATAATAAT | -0.0285 |
| AGCAGGAT | -0.0407 |
| ACCCCCGC | 0.126 |
| AATCTTAA | -0.212 |
| CGGCGAAA | 0.233 |
| CGGGCTGA | 0.148 |
| AGACTTAA | -0.325 |
| AGAAATAA | 0.0545 |
| AATGGTGA | -0.219 |
| GCCATAGA | -0.147 |
| GTGGGCTA | -0.203 |
| AGAAGTCG | -0.109 |
| CATGTCTA | -0.202 |
| ACATGCAT | -0.107 |
| CCCACCGG | 0.248 |
| GTGGATGA | -0.0594 |

| Sequence | PBM E-score |
| --- | --- |
| CGCCTGTA | -0.0268 |
| ATCCGGAG | 0.433 |
| AAACAATG | -0.114 |
| AATAAATG | 0.0227 |
| CAGCCTGA | -0.266 |
| CCCATAAA | -0.0892 |
| ACTTTTAC | 0.0984 |
| GTCAGAGA | -0.244 |
| TTATGGAA | 0.0348 |
| ATGCAAAC | -0.02 |
| ATTGACGA | -0.132 |
| TACGCTGA | 0.102 |
| AGCACGGC | 0.185 |
| ACAGGAGT | -0.173 |
| GAGTCCCC | -0.106 |
| ATCCAATC | 0.0224 |
| ACTTAGAA | -0.165 |
| TGGTAGAA | -0.0271 |
| TAAAAGAA | -0.193 |
| CCCTACCG | -0.00608 |
| CATACTGC | 0.0262 |
| CAGGCGGG | 0.0666 |
| CAAGAATA | 0.088 |
| ATCTACGC | 0.0856 |
| ATGACTCA | -0.205 |

| Sequence | PBM E-score |
| --- | --- |
| CTTCGAAA | -0.364 |
| AAGTGAGG | -0.173 |
| AACAGTCA | -0.188 |
| ACAGTCAT | -0.164 |
| ACCGCTCC | 0.00116 |
| AGTGGCAC | -0.145 |
| CGGTAACC | 0.198 |
| GTTCAAAC | -0.0193 |
| ATGAAGAG | -0.0741 |
| AAACAGGC | -0.155 |
| GGAGAGAA | 0.0169 |
| AAGAACAA | 0.149 |
| ATGGTACC | -0.0183 |
| GAACCTGC | 0.0396 |
| AAGCCGTC | 0.178 |
| ACTGTCAT | -0.14 |
| AGATTTAC | 0.0482 |
| ATGGAAGG | -0.197 |
| GATCCGTA | 0.336 |
| CCTTGAGC | -0.168 |
| CTTCGATC | -0.0632 |
| TGCACACA | -0.0347 |
